Results are given in words; binding and its absence hold for the method and conditions named. For part of these data: In cells and extracts the contact can be indirect. Some entries that bind do so weakly or less than the wild type. For part of these data: Tags and fused reporters may be left off the sequences shown. One block for each substance: values may come before it.
How the values were obtained:
[1] = biological target: AT-HOOK MOTIF NUCLEAR LOCALIZED 17 (AHL17), luciferase-half fusions for LCI (Arabidopsis thaliana) (UniProt Q9LTA2); assay: split reporter; luciferase complementation imaging (LCI, also printed LIC): X-nLUC and cLUC-Y co-infiltrated by Agrobacterium into N. benthamiana leaves; LUC activity detected 2 days after infiltration
[2] = biological target: T1, AT-HOOK MOTIF NUCLEAR LOCALIZED 28 (AHL28), luciferase-half fusions for LCI (Arabidopsis thaliana) (UniProt Q9M9R4); assay: as above
T1 sequence: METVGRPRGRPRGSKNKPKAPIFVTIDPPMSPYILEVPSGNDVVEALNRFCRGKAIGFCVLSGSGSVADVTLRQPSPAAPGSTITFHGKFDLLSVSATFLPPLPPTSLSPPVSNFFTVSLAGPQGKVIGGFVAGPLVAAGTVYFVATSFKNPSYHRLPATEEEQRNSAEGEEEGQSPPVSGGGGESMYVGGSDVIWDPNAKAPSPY

Protein sequences, listed by entry. Tags and fused reporters are not part of them.
UniProt P22953: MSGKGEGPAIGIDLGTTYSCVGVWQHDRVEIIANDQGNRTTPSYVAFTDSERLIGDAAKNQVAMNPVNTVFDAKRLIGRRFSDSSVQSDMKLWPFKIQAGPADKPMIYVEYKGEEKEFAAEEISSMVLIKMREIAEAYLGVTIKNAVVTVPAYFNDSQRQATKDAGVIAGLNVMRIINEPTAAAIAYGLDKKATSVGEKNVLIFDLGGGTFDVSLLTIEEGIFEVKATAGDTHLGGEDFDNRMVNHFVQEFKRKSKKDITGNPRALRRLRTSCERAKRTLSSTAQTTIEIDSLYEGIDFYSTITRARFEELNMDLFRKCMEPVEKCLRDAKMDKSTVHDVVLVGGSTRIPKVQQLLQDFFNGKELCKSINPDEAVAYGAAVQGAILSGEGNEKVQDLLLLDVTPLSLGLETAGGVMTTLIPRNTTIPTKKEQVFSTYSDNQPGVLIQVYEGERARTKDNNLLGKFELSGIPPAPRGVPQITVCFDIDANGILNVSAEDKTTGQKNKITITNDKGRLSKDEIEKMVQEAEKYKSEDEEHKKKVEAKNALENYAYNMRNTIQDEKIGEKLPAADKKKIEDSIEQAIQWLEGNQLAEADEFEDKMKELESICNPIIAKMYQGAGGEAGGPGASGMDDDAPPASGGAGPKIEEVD
UniProt P22954: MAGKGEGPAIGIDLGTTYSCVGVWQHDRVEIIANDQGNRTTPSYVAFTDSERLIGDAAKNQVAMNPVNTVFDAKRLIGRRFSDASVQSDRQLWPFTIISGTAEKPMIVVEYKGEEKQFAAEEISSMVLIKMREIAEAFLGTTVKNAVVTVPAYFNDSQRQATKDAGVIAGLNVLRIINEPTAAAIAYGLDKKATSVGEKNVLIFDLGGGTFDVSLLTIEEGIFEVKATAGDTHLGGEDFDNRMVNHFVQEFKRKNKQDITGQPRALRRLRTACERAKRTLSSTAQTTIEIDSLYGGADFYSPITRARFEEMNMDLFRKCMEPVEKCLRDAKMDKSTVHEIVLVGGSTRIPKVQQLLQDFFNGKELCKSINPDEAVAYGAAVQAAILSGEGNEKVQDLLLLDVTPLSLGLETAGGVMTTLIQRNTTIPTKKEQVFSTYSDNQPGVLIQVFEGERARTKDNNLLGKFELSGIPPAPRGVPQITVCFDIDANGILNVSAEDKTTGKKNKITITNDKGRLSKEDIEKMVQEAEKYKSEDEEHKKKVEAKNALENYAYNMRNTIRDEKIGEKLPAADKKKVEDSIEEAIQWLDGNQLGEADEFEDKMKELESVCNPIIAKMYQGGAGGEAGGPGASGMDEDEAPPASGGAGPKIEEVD
UniProt Q9S9N1: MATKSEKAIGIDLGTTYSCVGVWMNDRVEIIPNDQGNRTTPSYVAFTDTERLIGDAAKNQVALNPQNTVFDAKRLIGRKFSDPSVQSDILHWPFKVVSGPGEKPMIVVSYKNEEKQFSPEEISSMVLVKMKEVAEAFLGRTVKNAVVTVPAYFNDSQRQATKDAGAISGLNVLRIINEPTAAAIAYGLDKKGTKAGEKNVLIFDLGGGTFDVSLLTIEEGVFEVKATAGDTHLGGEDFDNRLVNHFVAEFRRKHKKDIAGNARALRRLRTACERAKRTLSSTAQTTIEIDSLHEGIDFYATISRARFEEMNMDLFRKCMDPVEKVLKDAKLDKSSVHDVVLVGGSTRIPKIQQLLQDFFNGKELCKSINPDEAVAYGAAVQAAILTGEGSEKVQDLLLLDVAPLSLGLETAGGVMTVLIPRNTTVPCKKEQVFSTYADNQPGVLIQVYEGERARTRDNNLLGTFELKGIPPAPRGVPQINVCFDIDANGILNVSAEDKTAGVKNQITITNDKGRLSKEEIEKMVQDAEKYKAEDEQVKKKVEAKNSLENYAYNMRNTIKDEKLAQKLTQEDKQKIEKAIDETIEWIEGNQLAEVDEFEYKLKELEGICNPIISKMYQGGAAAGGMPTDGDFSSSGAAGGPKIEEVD

[3] = biological target: AHL17, YFP-half fusion for BiFC (Arabidopsis thaliana) (UniProt Q9LTA2); assay: split reporter; BiFC: nYFP and cYFP fusions co-infiltrated into N. benthamiana leaves; YFP fluorescence examined 2 days after infiltration by confocal microscopy
[4] = biological target: T2, AHL28, YFP-half fusions for BiFC (Arabidopsis thaliana) (UniProt Q9M9R4); assay: as above
T2 sequence: T1 sequence

[5] = biological target: AHL17, yeast two-hybrid fusion (Arabidopsis thaliana) (UniProt Q9LTA2); assay: two-hybrid; yeast two-hybrid experiments named only in the discussion; no format told
[6] = biological target: T3, RHD6, nYFP fusion for BiFC (Arabidopsis thaliana) (UniProt Q9C707); assay: split reporter; BiFC: nYFP and cYFP fusions co-infiltrated into N. benthamiana leaves; YFP fluorescence examined 2 days after infiltration by confocal microscopy
T3 sequence: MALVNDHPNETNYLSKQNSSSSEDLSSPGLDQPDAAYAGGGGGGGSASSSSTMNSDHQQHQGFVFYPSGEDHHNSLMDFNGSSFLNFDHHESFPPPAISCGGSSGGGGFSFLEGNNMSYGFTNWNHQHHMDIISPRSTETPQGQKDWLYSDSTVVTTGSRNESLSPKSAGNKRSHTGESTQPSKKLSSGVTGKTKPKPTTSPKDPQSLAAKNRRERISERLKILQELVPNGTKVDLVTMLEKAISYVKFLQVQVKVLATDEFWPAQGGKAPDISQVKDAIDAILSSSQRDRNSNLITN

[7] = biological target: myc-tagged HSP70-1 (HSP70-1-myc) (Arabidopsis thaliana) (UniProt P22953); assay: co-IP; RHD6-GFP, HSP70-1-myc and AHL17-FLAG co-expressed in N. benthamiana leaves; precipitated with anti-myc beads or anti-GFP beads; western blot with anti-GFP, anti-myc and anti-FLAG
[8] = biological target: GFP-tagged AHL17 (AHL17-GFP) (Arabidopsis thaliana) (UniProt Q9LTA2); assay: co-IP; two constructs co-expressed in N. benthamiana leaves; total proteins precipitated with anti-GFP Magarose beads, 4°C, 1 h, washed at least six times; western blot with anti-GFP and anti-myc
[9] = biological target: T4, RHD6-GFP (Arabidopsis thaliana) (UniProt Q9C707); assay: as above
T4 sequence: T3 sequence

[10] = biological target: T5, ROOT HAIR …6 (RHD6), luciferase-half fusion for LCI (Arabidopsis thaliana) (UniProt Q9C707); assay: split reporter; luciferase complementation imaging (LCI, also printed LIC): X-nLUC and cLUC-Y co-infiltrated by Agrobacterium into N. benthamiana leaves; LUC activity detected 2 days after infiltration
T5 sequence: T3 sequence

Substance: HSP70-2, cLUC fusion for LCI (from UniProt P22954 1-653)
binding [1]: binds
binding [2]: binds

Substance: HSP70-1, yeast two-hybrid fusion (from UniProt P22953 1-651)
binding [5]: binds

Substance: HSP70-1, YFP-half fusions for BiFC (from UniProt P22953 1-651)
binding [3]: binds
binding [4]: binds
binding [6]: binds

Substance: HSP70-5, cLUC fusion for LCI (from UniProt Q9S9N1 1-646)
binding [1]: no binding

Substance: AT-HOOK MOTIF NUCLEAR LOCALIZED 17 (AHL17), luciferase-half fusions for LCI (from UniProt Q9LTA2 1-276)
binding [1]: binds
binding [2]: binds

The next lines start with the values.

binding [3]: binds
binding [4]: binds
Substance: HSP70-2, YFP-half fusion for BiFC (from UniProt P22954 1-653)

binding [5]: binds
Substance: HSP70-2, yeast two-hybrid fusion (from UniProt P22954 1-653)

binding [7]: binds
Substance: AHL17-FLAG (from UniProt Q9LTA2 1-276)

binding [8]: binds
binding [9]: binds
Substance: myc-tagged HSP70-1 (HSP70-1-myc) (from UniProt P22953 1-651)

binding [1]: binds
binding [2]: binds
binding [10]: binds
Substance: HEAT SHOCK PROTEIN 70-1 (HSP70-1), cLUC fusion for LCI (from UniProt P22953 1-651)
